Measured values as given in publication PMC10850161.
No constants are given. Whether binding was seen depends on the method and setting. Binding seen in cells or lysates may run through a third protein. Some results given as binding are weak or reduced against the parent protein; the word gives no strength. Blank lines part the entries; values can stand above or below the substance they belong to.

Protein sequences, listed by entry. Tags and fused reporters are not part of them.
UniProt O60260: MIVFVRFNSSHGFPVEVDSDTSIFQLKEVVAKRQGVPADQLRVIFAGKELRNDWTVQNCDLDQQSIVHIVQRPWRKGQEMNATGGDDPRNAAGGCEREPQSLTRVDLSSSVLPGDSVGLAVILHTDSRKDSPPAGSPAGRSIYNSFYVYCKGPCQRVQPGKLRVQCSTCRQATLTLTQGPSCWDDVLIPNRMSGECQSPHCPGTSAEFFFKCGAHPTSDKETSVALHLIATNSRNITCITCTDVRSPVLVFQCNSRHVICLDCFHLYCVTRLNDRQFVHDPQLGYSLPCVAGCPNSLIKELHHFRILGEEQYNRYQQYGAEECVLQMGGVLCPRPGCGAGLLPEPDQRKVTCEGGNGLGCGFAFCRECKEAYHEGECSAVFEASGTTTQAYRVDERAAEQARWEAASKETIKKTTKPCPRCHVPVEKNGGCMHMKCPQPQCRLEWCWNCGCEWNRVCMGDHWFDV
UniProt Q14814: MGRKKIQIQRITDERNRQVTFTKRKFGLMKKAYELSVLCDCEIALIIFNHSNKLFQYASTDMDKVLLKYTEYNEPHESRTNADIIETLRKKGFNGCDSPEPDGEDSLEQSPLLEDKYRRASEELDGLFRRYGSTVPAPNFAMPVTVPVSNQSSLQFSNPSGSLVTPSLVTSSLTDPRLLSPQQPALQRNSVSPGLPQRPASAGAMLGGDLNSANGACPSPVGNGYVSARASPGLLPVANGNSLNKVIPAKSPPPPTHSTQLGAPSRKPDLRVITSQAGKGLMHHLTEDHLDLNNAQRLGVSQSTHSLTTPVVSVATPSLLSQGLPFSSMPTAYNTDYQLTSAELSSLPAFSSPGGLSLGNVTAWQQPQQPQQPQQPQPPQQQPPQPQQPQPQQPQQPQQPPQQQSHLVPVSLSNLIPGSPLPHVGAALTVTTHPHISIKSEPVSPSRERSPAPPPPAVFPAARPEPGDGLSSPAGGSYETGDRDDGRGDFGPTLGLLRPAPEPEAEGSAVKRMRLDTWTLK
UniProt Q9BQQ3: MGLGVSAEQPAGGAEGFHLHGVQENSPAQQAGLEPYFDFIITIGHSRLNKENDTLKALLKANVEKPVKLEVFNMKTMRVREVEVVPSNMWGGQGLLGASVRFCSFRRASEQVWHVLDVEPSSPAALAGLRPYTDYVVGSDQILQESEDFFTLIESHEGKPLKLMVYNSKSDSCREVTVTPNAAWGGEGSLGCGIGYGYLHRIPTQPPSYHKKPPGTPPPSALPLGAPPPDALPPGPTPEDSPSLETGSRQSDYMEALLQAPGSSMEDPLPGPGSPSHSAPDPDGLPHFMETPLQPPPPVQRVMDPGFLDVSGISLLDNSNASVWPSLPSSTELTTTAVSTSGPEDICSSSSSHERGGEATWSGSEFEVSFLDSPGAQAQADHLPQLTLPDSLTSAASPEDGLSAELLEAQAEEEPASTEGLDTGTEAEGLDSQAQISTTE

Experiments:
[1] = biological target: His-tagged Parkin (affinity-purified recombinant, from bacteria) (UniProt O60260); test: pull-down; His-tagged bait (Parkin or MEF2D) coupled to resin, incubated overnight at 4 °C with lysate of MEFs expressing the Flag-tagged protein; resin washed three times, eluted by boiling in Laemmli buffer; immunoblot with anti-Flag, anti-Parkin, anti-His; only the target purified
His-tagged MEF2D = His-tagged MEF2D (UniProt Q14814); test: as above
[2] = biological target: T1, GM130 (human (endogenous in HeLa)) (UniProt Q08379); test: proximity ligation; HeLa cells, fixed with 4% paraformaldehyde; primary antibodies against the two proteins overnight at 4 °C; PLA kit (Sigma-Aldrich DUO92014); PLA dots per cell counted
T1 sequence: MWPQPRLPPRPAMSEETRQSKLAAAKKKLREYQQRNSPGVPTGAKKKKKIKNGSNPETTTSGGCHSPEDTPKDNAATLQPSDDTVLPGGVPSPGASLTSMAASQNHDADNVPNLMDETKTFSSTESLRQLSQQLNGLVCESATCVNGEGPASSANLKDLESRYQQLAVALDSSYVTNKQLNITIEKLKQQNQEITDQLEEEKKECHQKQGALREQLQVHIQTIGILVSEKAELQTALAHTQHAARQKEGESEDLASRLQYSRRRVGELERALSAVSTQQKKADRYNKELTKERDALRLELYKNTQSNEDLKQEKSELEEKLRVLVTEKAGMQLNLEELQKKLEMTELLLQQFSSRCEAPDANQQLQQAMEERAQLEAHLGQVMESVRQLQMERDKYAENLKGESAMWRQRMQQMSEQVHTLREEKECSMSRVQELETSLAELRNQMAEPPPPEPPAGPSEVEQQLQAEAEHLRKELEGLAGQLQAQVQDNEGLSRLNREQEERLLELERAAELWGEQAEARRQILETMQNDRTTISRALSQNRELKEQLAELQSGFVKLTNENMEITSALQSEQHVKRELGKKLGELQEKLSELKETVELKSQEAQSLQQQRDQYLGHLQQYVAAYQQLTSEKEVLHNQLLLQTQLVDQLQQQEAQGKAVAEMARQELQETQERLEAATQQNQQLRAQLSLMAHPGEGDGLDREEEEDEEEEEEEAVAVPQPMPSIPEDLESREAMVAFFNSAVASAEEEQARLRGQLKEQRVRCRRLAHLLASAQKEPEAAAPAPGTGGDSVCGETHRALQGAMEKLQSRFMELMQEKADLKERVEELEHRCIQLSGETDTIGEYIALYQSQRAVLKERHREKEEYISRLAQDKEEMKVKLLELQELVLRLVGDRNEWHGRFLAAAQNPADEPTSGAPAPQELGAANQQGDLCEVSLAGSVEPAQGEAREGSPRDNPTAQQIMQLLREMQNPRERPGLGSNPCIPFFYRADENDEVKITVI

[3] = biological target: YFP-Parkin, expressed in HeLa cells (UniProt O60260); test: as above
[4] = biological target: mCherry-Parkin, expressed in HeLa cells (UniProt O60260); test: as above

- binding [1]: binds
- binding (His-tagged MEF2D): no binding
Substance: Flag-tagged Calcineurin (CaN-Flag), expressed in MEFs (from UniProt P16298 1-524) (enzyme)

- binding [2]: binds
- binding [3]: no binding
Substance: GRASP65 (from UniProt Q9BQQ3 1-440)

- binding [4]: binds
Substance: PPP3CB-Flag (CaN-FLAG), expressed in HeLa cells (from UniProt P16298 1-524) (enzyme)
